Reference: PubChem BioAssay AID1159614 (National Center for Advancing Translational Sciences (NCATS), 2016)
Among all 45,000 compounds or so, about 65 (0.1%) were called active. Calls follow the shape of the dose curve; as a rule, active = well fitted activation curve with a large enough effect; inconclusive = small, poorly fitted or top-dose-only effect; inactive = no such curve, though single readings can be large or run the other way. This is one part of the list.

target: Galactocerebrosidase (Homo sapiens) (UniProt P54803); test: A Novel Cell-Based Assay to Identify Small Molecules for B -Galactocerebrosidase; conditions: 145M-Twi-hGALC-G270D cells (Twitcher mouse brain line with human GALC G270D), HMU-beta-Gal fluorescence, 48 h; series mostly up to 57.5 µM; activation: at the top concentration; also: 0% is about no effect; nearly all actives have a fitted effect of over 65% in size
In short: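 Fluorescence readout: HMU-β-gal cleavage by mutant GALC (0.1 mM final, citrate/phosphate pH 5.2 with 1 mg/mL taurocholate), stopped with carbonate/bicarbonate plus Triton X-100. Cells: murine Twitcher 145M-Twi expressing human G270D GALC; qHTS for activators.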

UniProt P54803, sequence (P54803 whole entry, looked up): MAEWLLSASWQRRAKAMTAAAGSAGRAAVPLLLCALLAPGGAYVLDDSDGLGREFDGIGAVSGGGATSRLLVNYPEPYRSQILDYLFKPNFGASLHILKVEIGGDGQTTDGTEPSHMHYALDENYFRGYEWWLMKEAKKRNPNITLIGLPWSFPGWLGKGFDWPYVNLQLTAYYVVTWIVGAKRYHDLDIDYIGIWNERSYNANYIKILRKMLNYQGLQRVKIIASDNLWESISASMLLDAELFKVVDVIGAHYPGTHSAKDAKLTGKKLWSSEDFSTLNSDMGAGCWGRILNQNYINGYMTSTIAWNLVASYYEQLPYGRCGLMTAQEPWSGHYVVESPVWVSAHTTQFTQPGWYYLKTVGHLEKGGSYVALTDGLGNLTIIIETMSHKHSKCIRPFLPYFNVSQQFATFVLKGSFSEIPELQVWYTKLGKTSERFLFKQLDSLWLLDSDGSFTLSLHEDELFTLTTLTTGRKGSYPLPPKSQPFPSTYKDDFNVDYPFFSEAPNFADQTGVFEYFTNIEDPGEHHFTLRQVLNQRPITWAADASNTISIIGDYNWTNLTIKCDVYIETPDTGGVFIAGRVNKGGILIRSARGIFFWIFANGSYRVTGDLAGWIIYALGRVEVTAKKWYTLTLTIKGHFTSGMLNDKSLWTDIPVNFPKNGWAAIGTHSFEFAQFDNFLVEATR

activation, inactive:
CCCc1nn2c(=O)cc(COC(=O)CNC(=O)COc3ccc(C)cc3)nc2s1 -7.61%
COc1cc(OC)c(N(C)C(=O)Nc2cn(CC(C)C)c(=O)c3ccccc23)cc1Cl -22.3%
CCOC(=O)c1sc(NC(=O)c2c(-c3ccccc3)c(-c3ccccc3)nn(C)c2=O)nc1C 7.7%
CC1CCN(C(=O)CSc2nc(-c3ccc(F)cc3)cc(C(F)(F)F)n2)CC1 -12%
CCCCOC(=O)c1ccc(NC(=O)c2sc3nc(C)cc(C)c3c2N)cc1 -23.8%
O=C(Cn1c(=O)nc(-c2ccccc2)c2ccccc21)Nc1ccc(Cl)cc1F -10.2%
COc1ccc(NC(=O)C2=C(C)Nc3nc(SCc4ccc(Cl)cc4)nn3C2c2cccc(OC)c2OC)cc1 (centres undefined) -9.4%
Cc1ccc(NC(=O)/C=C/c2ccccc2Cl)cc1Cl -17.7%
Cc1cc2c(cc1S(=O)(=O)Nc1cc(C(F)(F)F)cc(C(F)(F)F)c1)OCC(=O)N2 -18.8%
Cc1[nH]c(=O)c(C#N)cc1-c1ccc2nccn2c1 -8.01%
COc1ccc(N(C)C(=O)Cn2cc(S(=O)(=O)N3CCN(c4ccccc4F)CC3)c3ccccc3c2=O)c(OC)c1 -14.3%
CCc1ccc(Nc2nc3ccccc3nc2NS(=O)(=O)c2ccccc2)cc1 -32%
Cc1cccc(-n2c(=O)c3ccccc3n(Cc3ccc(F)cc3)c2=O)c1 -6.48%
O=C(NCCSc1c[nH]c2ccccc12)c1ccccc1Cl -16.1%
COc1ccc(NC(=O)C2CCN(S(=O)(=O)c3c(C)noc3/C=C/c3cccs3)CC2)cc1Cl -17.5%
Cc1nc2cccnc2n1C1CCN(C(=O)Nc2ccc(Cl)cc2)CC1 -19.5%
CCOc1ccc(-c2c(C)nn3c(C)c(C(=O)NCCc4ccc(C)cc4)cnc23)cc1OCC -15.6%
CCc1c(C)sc2c1CCN(Cc1ccccc1F)C2c1ccccc1 (centres undefined) -18.8%
COC(=O)Cc1c(C)c2ccc3c(c2oc1=O)CN(Cc1ccccc1Cl)CO3 -15.9%
COc1ccc2[nH]cc(CCN=C(NC(=O)c3ccccc3OC)Nc3nc(C)cc(C)n3)c2c1 -6.29%
CCc1cc2c(cc3c(=O)n(CC(=O)NCCc4ccc(OC)cc4OC)nc(CC)n32)s1 -5.37%
Cc1ccc(-n2cnnn2)cc1S(N)(=O)=O -6.71%
Cc1cc2[nH]c(=O)c(=O)[nH]c2cc1S(=O)(=O)N1CCN(c2cccc(Cl)c2)CC1 -12.6%
COC(=O)Cn1c(SCCOc2ccccc2OC)nc2ccccc21 -6.35%
CCCCCCCCOc1ccc(C(=O)c2ccccc2)c(O)c1 -7.98%
CNC(=O)CN1C(=O)COc2ccc(S(=O)(=O)N3CCC(C)CC3)cc21 0.974%
COCCNC(=O)c1ccccc1NC(=O)c1nsc2ccccc12 -9.65%
Cc1ccccc1Nc1c(-c2ccc(N3CCOCC3)cc2)nc2ccc(Br)cn12 -16%
CCSc1ncc(Cl)c(C(=O)Nc2cccc(Cl)c2)n1 -9.07%
Cc1ccc(NC(=O)c2ccc(NC(=O)CCS(=O)(=O)c3cccs3)cc2)cc1F -1.93%
COc1cccc(Cn2cc(C(=O)c3ccc(Cl)cc3)c(=O)c3ccccc32)c1 -8.11%
Cc1ccc(NC(=O)CCCc2nc(-c3ccco3)no2)cc1Cl -18.6%
COc1nccnc1NS(=O)(=O)c1ccc(N)cc1 -12.9%
COc1cccc(NC(=O)C(Cc2ccccc2)N2Cc3ccccc3C2=O)c1 (centres undefined) -20.2%
COc1ccc(-n2nnnc2C2CCN(S(=O)(=O)c3cccc(C(F)(F)F)c3)CC2)cc1 -0.456%
COc1ccc(-n2c(SCC(=O)NCc3ccc(Cl)cc3)nc3ccsc3c2=O)cc1 -2.37%
COc1cccc(-n2c(=O)c3cc(OC)c(OC)cc3n(CC(=O)Nc3ccc(F)cc3)c2=O)c1 -1.32%
COc1ccc(NS(=O)(=O)c2ccc(N3CCCCS3(=O)=O)cc2)cc1Cl -12.5%
COc1ccc(-c2noc(CCC(=O)N(C)c3cc(Cl)ccc3OC)n2)cc1 -13.9%
CC(C)CCOc1ccc(C(=O)NCC2OCCc3ccccc32)cc1 (centres undefined) -3.08%
CCOc1ccc(Nc2ncnc3c2c(-c2ccccc2)cn3-c2cccc(C)c2)cc1 -4.52%
Clc1ccc(-c2nnn3c2nc(NC2CCCCC2)c2ccccc23)cc1 -10.2%
CCOc1ccc(C(=O)N(Cc2ccc(C(C)C)cc2)Cc2ccco2)cc1 -9.17%
COc1cc(NC(=O)c2cccc(Cl)c2Cl)ccc1NC(=O)c1cc2ccccc2o1 -13.3%
CCS(=O)(=O)N1CCCc2cc(C(=O)Nc3cccc(C(C)=O)c3)ccc21 -7.43%
CCCc1cnc2c(c1SCC(=O)Nc1ccccc1OCC)c(=O)n(C)c(=O)n2C -14.6%
CCCn1c2ccc(F)cc2c2nnc(SCCN3CCCCC3)nc21 -13%
CCC(=O)N1CCc2cc(Br)cc(S(=O)(=O)CCC(=O)Nc3cccc(Cl)c3)c21 -17.2%
Cc1cccc(C)c1NC(=O)CN1CCCC1 -9.23%
COc1cccc(Cn2nc(SC)c(S(=O)(=O)c3ccccc3)c2N(C(C)=O)C(C)=O)c1 -5.95%
CCCSCCCNC(=O)c1ccc(C)c(NC(=O)c2nsc3ccccc23)c1 -17.2%
Cc1cc2c(cc1NS(=O)(=O)c1ccc(Br)cc1)n(C)c(=O)c(=O)n2C 0.201%
COc1cc2c(cc1OC)C(c1cccc(Cl)c1)CC(=O)N2 (centres undefined) -1.83%
N#CCC(=O)NN -15.5%
COc1ccc(N2CCN(S(=O)(=O)c3ccc(F)c(C(=O)Nc4ccccc4Cl)c3)CC2)cc1 -15.2%
Cn1nc(-c2ccccc2F)c2cc(C(=O)NCc3ccccc3Cl)sc21 -32.7%
COc1ccc(CC(=O)N2CCc3cc(OC)c(OC)cc3C2COc2ccc(F)cc2)cc1 (centres undefined) -18.9%
COc1ccc(OC)c(NC(=O)c2oc(=O)c3ccccc3c2-c2ccccc2)c1 -6.38%
CCOc1ccc(NCc2cccn2-c2nnc(N3CCC(C(=O)NCc4ccccc4Cl)CC3)s2)cc1 -13.2%
CCc1ccc(OCCSc2nc3ccccc3n2CC(=O)N2CCCCC2)cc1 -35.9%
O=C(c1ccc(F)cc1)N1CCc2c([nH]c3ccccc23)C1c1ccc(Cl)cc1 (centres undefined) -5.18%
COc1ccc(Cl)cc1NC(=O)N1CCN(S(=O)(=O)c2ccc3c(ccn3C)c2)CC1 -4.69%
CC(C)(C)OC(=O)N1CCC(c2c(C(=O)NCc3cccs3)cnn2-c2cccc(F)c2)CC1 -20.2%
CCCCNC(=O)c1cccc(NC(=O)c2nsc3ccccc23)c1 -14.6%
